# About 1,100 (0.39%) of roughly 280,000 compounds were called active. This list was built around the results that the source calls inconclusive (neither active nor inactive); the mix of calls is not that of the screen. Calls follow the shape of the dose curve; as a rule, active = well fitted inhibition curve with a large enough effect; inconclusive = small, poorly fitted or top-dose-only effect, or effect the other way; inactive = flat fitted curve, though single readings scatter. Potencies of inconclusive entries are left out as doubtful fits.
# Biological target: Microtubule-associated protein tau (Homo sapiens) (UniProt P10636)
# Experiment: qHTS for Inhibitors of Tau Fibril Formation, Fluorescence Polarization; also: nearly all actives have a fitted effect of over 55% in size
# Conditions: K18 P301L tau heparin fibrillization, Alexa594 FP, 6 h; series mostly up to 57.7 µM
# In short: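 FP of Alexa 594-tau after heparin (20 uM) induction. Substrate: human K18 P301L, 15 uM unlabeled, 0.24 uM labeled. Buffer 100 mM sodium acetate pH 7. 6 hr, 37 C.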
# Potency is read from the fitted curve at half-maximal effect; tags tell the direction and shape of the fitted curve.
# Sequence of UniProt P10636 (P10636 whole entry, looked up): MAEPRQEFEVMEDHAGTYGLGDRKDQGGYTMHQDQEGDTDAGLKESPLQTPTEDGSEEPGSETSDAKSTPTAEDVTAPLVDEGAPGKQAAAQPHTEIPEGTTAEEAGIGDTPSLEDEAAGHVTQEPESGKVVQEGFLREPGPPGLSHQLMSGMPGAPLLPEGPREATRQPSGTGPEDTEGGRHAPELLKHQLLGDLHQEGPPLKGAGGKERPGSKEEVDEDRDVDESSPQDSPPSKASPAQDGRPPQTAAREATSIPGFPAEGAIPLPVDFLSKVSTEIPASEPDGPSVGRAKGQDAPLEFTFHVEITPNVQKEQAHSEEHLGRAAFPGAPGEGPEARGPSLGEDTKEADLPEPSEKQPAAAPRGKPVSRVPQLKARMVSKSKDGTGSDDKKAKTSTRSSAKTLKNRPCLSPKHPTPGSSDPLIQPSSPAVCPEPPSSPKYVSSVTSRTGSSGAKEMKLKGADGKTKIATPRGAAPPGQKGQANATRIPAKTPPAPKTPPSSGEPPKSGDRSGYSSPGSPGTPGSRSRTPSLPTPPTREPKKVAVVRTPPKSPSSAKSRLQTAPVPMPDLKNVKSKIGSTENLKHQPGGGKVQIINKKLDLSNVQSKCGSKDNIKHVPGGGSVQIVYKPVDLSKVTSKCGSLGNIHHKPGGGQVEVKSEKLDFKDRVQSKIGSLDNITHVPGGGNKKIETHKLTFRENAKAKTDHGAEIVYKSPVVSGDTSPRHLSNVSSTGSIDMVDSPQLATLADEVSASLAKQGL
row,SMILES,Potency
1,NC(=O)C1(N2CCCCC2)CCN(CC(=O)Nc2ccccc2-c2ccccc2)CC1,"inconclusive [inhibitor, full curve, poor fit]"
2,CCCOc1ccc(NC(=O)CC2C(=O)N(c3cccc(OC)c3)C(=O)N2Cc2cccs2)cc1 (stereo not given),inactive
3,Clc1cccc(-c2nc(NCCN3CCOCC3)c3ccccc3n2)c1,"inconclusive [inhibitor, single point]"
4,O=C(Nc1cccnc1)c1ccc2nc(-c3ccccc3)c(-c3ccccc3)nc2c1,"inconclusive [inhibitor, partial curve]"
5,COc1ccccc1-n1cnc2sc(-c3ccccc3)cc2c1=O,"inconclusive [inhibitor, single point]"
6,NS(=O)(=O)c1ccc(NC(=O)/C=C/c2cccs2)cc1,"inconclusive [inhibitor, single point]"
7,CCSc1nc2ccc(OC)cc2cc1C#N,"inconclusive [inhibitor, partial curve]"
8,COc1cc(C2C(C(C)=O)=C(O)C(=O)N2CCc2ccc(OC)c(OC)c2)ccc1O (stereo not given),inactive
9,CSC1=N/C(=C\c2ccc(C)o2)C(=O)S1,"inconclusive [inhibitor, full curve, poor fit]"
10,CCOC(=O)c1c(C)oc2ncnc(Nc3ccc(OC)cc3OC)c12,inactive
11,CC(c1ccccc1F)n1cc(C(=O)NCCc2ccco2)nn1 (stereo not given),inactive
12,O=C1NC(=O)[C@@H]2C3c4ccccc4C=CN3[C@H](C(=O)c3cccs3)[C@H]12 (stereo not given in full),"inconclusive [inhibitor, partial curve]"
13,Cc1ccc(C(=O)Nc2cc(-c3nc4ncccc4o3)ccc2C)c(C)c1,"inconclusive [inhibitor, single point]"
14,COc1ccc(-c2nc(C#N)c(N3CCc4ccccc4C3)o2)cc1OC,inactive
15,Cc1ccc(-c2nn(-c3ccccc3)cc2C2CC(c3ccccc3)=NN2C(=O)CCC(=O)O)cc1 (stereo not given),"inconclusive [inhibitor, single point]"
16,S=C(NCc1ccccc1)NCc1cccc(CNC(=S)NCc2ccccc2)c1,"inconclusive [inhibitor, partial curve]"
17,Clc1ccc(CNc2ccc(CNc3ncn[nH]3)cc2)c(Cl)c1,"inconclusive [activator, single point]"
18,COC(=O)c1ccc(Cn2cnc3nc4c(cc3c2=O)CCCC4)cc1,inactive
19,C=CCN(CC=C)C(=O)COC(=O)c1ccc(Sc2ncn[nH]2)c([N+](=O)[O-])c1,"inconclusive [inhibitor, single point]"
20,Cn1c(SCC(=O)Nc2sccc2C(N)=O)nnc1-c1ccncc1,inactive
21,O=C(CN1C(=O)S/C(=C\c2ccc(Cl)cc2)C1=O)NNC(=O)c1ccccc1O,"inconclusive [inhibitor, single point]"
22,O=C(CCC(=O)OCC(=O)c1ccc(F)cc1)NC1CCCCC1,inactive
23,COc1ccccc1NC(=O)c1sc2nc(C)c(C(=O)Nc3ccc(C)cc3C)c(-c3ccco3)c2c1N,inactive

row,SMILES,Potency
1,CC(C)c1ccc(NC(=O)c2ccc(F)c(S(=O)(=O)N3CCc4ccccc43)c2)cc1,"inconclusive [inhibitor, partial curve]"
2,CCOc1ccc(OCC)c(Nc2ccc3cc(S(=O)(=O)N4CCCC4)ccc3n2)c1,"inconclusive [activator, partial curve, poor fit]"
3,Cc1ccccc1NC(=O)CSc1nc2ccc(NC(=O)c3cccs3)cc2s1,"inconclusive [inhibitor, full curve]"
4,Nc1nnc(CC(=O)N/N=C\c2cc([N+](=O)[O-])ccc2O)s1,inactive
5,CSc1cccc(NC(=O)c2cccc(N3CCCS3(=O)=O)c2)c1,inactive
6,COc1ccccc1CNC(=O)c1cc2sccc2n1Cc1ccc(Cl)cc1,"inconclusive [inhibitor, partial curve, poor fit]"
7,Cc1ccc(/C=C/c2onc(C)c2S(=O)(=O)N2CCC(C(=O)Nc3cc(C)ccc3C)CC2)cc1,"inconclusive [inhibitor, single point]"
8,N#CC(C#N)=NNc1ccc([N+](=O)[O-])cc1,inactive
9,O=C(Nc1ccc(S(=O)(=O)N2CCCCC2c2cccnc2)cc1)c1ccc(Br)cc1 (stereo not given),"inconclusive [inhibitor, full curve]"
10,CCOC(=O)CN1CC23C=CC(O2)C(C(=O)NCc2cccs2)C3C1=O (stereo not given),"inconclusive [inhibitor, full curve, poor fit]"
11,O=C(c1ccco1)N1CCN(CC(O)Cn2c3ccccc3c3ccccc32)CC1 (stereo not given),inactive
12,O=c1cc(-c2cccc([N+](=O)[O-])c2)[nH][nH]1,"inconclusive [inhibitor, full curve, poor fit]"
13,COc1ccc(S(=O)(=O)c2cn(C)c3ccc(C)cc3c2=O)cc1,inactive
14,Cc1cc(C)c2oc(C(=O)Nc3ccc(S(=O)(=O)N4CCCCCC4)cc3)cc(=O)c2c1,"inconclusive [inhibitor, partial curve]"
15,CCSc1nnc(NC(=O)CSc2nnc(CNC(=O)c3ccc(OC)cc3)o2)s1,"inconclusive [inhibitor, full curve]"
16,Cc1cc(C(=O)N/N=C/c2c(C)[nH]c3ccccc23)n[nH]1,"inconclusive [activator, single point]"
17,Cc1cc(N2CCN(c3nc4ccccc4s3)CC2)n2ncnc2n1,"inconclusive [inhibitor, single point]"
18,CCOc1ccc(NC(=O)C(=O)c2cc(C)n(-c3cc(C)cc(C)c3)c2C)cc1,inactive
19,Cc1ccc(S(=O)(=O)N2CCCC2C(=O)OCc2ccccc2)cc1 (stereo not given),inactive
20,CN(C)S(=O)(=O)c1ccc(-c2csnn2)s1,"inconclusive [inhibitor, partial curve, poor fit]"
21,CCc1nn2c(=O)cc(COC(=O)CNC(=O)COc3ccc(C)cc3)nc2s1,inactive
22,O=C(Nc1nc(-c2ccncc2)cs1)C1c2ccccc2Oc2ccccc21,"inconclusive [inhibitor, single point]"

# — PubChem BioAssay AID1468 (National Center for Advancing Translational Sciences (NCATS), 2008)
